# Assay results reported in the supplement of paper PMC3334620.
# Over roughly 33,000 sequences, “E-score (-0.5 to 0.5)” has its median near -0.054; the highest 2% begin near 0.35. The list shows a part of the results.
# Molecular target: T1, Stb5 (UniProt P38699)
# T1 sequence: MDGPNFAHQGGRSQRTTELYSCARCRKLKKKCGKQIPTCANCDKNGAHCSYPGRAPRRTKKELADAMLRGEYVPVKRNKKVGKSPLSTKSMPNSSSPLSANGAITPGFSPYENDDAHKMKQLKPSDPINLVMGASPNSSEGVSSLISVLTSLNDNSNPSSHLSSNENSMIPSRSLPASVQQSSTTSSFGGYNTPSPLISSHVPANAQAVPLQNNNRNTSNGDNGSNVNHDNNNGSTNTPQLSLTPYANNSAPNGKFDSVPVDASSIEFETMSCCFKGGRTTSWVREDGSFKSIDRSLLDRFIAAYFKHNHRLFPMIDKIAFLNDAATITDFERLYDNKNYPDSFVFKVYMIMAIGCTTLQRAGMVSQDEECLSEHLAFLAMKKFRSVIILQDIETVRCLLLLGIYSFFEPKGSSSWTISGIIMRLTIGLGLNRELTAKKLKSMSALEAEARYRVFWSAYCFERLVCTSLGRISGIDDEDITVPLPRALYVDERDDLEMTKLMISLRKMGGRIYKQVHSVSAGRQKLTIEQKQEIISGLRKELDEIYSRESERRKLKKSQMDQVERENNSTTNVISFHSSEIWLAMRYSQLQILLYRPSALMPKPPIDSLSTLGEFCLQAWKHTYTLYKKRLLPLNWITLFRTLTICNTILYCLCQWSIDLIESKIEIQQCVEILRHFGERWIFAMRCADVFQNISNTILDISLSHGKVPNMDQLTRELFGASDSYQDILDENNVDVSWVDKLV
# Test: PBM E-score (8-mer binding enrichment) (E-score (-0.5 to 0.5)); higher = stronger / more preferred TF binding; most listed sequences are background and not binding sites
# Settings: protein concentration: 200 nM; construct: GST-full length
# Procedure, shortened: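 For each ungapped eight-base word taken together with its reverse complement, the Universal PBM Analysis Suite assigned an E-score. Binding data came from GST-tagged yeast transcription factors, applied at about 100-200 nM, on universal all-10-mer Agilent arrays made double-stranded by primer extension. Fluorescent anti-GST marked bound protein, and scans were normalised with masliner.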
row,Sequence,PBM E-score
1,AACGTACG,-0.103
2,GCGGCTAC,0.192
3,CGTCTACC,-0.0293
4,AGGTGGAC,-0.191
5,GTTCCGCA,0.19
6,GAACGGTA,0.212
7,ATCTTGAC,-0.254
8,AATTGGCA,-0.187
9,AGGGGTTC,-0.15
10,CCAGTACA,-0.234
11,CGTGAATC,-0.0474
12,GGTCCAGA,-0.0181
13,GATGTCGC,-0.00661
14,CTCATACC,0.0707
15,GATTGGGA,-0.238
16,CTGGTGGC,-0.248
17,CGCTAGTA,0.26
18,GCTTCACA,-0.172
19,AATCTCAG,-0.281
20,ACTTCTTG,-0.0308
21,GCGAGCAC,-0.0442
22,GCTCAAAC,0.189
23,AGTCGCAT,-0.16
24,ATTATGAA,0.0321
25,CGTTTTCA,0.127

row,Sequence,PBM E-score
1,GTGTTCGA,-0.101
2,AAACGTCC,-0.0079
3,CCGCCCCG,0.409
4,ATAAAATA,0.0226
5,CCTATAAA,0.022
6,CGGGAAAA,0.282
7,GCCGGCGA,0.259
8,GACAACAA,-0.16
9,AGCGGAAG,0.137
10,AGAGATAT,-0.194
11,AGTGAAGA,-0.155
12,AATTTTCC,0.167
13,GAGTGCAC,-0.125
14,GGGAGCCC,-0.0225
15,AACATTTA,-0.0512
16,AGCCATGA,-0.0944
17,CAGATTAG,-0.16
18,TAACTTCA,-0.0957
19,AAAGAACA,-0.172
20,CTGTTGTA,-0.0921
21,CCGCGCAC,0.24
22,AATCAAAA,-0.0569
23,GAGGCAGA,-0.0954
24,CAATTAAC,0.0512
25,CCCGCCGG,0.39

row,Sequence,PBM E-score
1,ACGTAGTC,-0.0657
2,ACGCAGCC,-0.123
3,AAATTAGT,-0.012
4,AAAAGCCG,0.38
5,CCAGTGCC,-0.123
6,ATTTTGCA,-0.0801
7,AGCCGTAT,-0.132
8,GACCGGCC,0.29
9,TCAATGGA,-0.0639
10,GGTCGTGA,-0.133
11,ATACTTTG,-0.249
12,GAGAACCC,-0.153
13,AGATGCAG,-0.308
14,AATTATCT,-0.0807
15,CTCTTATA,0.142
16,CAGTGCAC,-0.0219
17,GACCCCAC,-0.112
18,ACCTGACC,-0.194
19,AAAAACAC,-0.0126
20,AAATTGTG,-0.306
21,AAGGCTGA,-0.214
22,AAGAACAC,-0.125
23,ACCGAACT,0.176
24,CTGGTTTC,-0.175
25,AGCACAAC,0.0407

row,Sequence,PBM E-score
1,ATTCGATG,-0.0293
2,ATCGCTCA,-0.294
3,ATTTGAGC,-0.024
4,ACAGCCCA,-0.263
5,CATAGGTA,-0.176
6,ATGACATA,-0.234
7,CCGACCGG,0.382
8,CGATGCAA,0.137
9,AGTGTGCA,-0.309
10,CAAGACGA,-0.175
11,CTGGCGGC,0.341
12,ACGTTGAT,-0.261
13,GTAGCGTA,-0.00685
14,AGGCCACA,-0.234
15,AGGTAATA,0.21
16,GTGGCCCA,-0.121
17,ATCCCTCG,-0.0782
18,AGTTCACC,0.0469
19,CGTGATAA,0.0332
20,GAGGCCAC,-0.226
21,CCTCACAG,-0.191
22,GTTTGGTA,0.0996
23,ATTCTTCG,-0.0834
24,CTGCATAA,-0.087
25,AAAGCCTT,-0.226

row,Sequence,PBM E-score
1,CAATGATA,-0.0649
2,CACGCTGA,-0.0562
3,CAGCGCAG,-0.0462
4,CAAGACCC,0.108
5,AAGACTCG,-0.125
6,CCGCGGCG,0.322
7,GACGCCTA,0.0029
8,CCAGTGAA,-0.105
9,CAAAAGCC,0.16
10,CGATTGTC,0.0331
11,AATACAGC,0.00825
12,CTGATCGA,-0.199
13,TCCCCAAA,-0.29
14,ACTTCATC,-0.126
15,AGGTCGTG,-0.223
16,GAAGGTAC,-0.158
17,ATGCGCCG,0.195
18,CAGGAGCC,-0.231
19,AGTGCGCA,0.0819
20,ACTACGAT,-0.217
21,AGGTTGGC,-0.163
22,GTGGCACA,-0.325
23,AGTGTACC,-0.219
24,CTGGTTCC,-0.176
25,GCCGGCGC,0.337

row,Sequence,PBM E-score
1,CTTTTTTC,-0.172
2,CCGATGAA,0.251
3,TAGCCCGA,0.171
4,AGAGTCCT,-0.216
5,GATCCTGC,-0.0268
6,CACTTATG,0.177
7,GACCCAGA,0.0755
8,CCCGAAGC,0.133
9,TACTGCCA,-0.141
10,TCTTCTCA,-0.12
11,CGCGGGAG,0.105
12,ATTAAAAC,0.15
13,GCGCCAAC,-0.0401
14,ACCAGAGT,-0.0938
15,AACAGACA,-0.113
16,AACAGCAG,-0.0535
17,AGATGCAA,-0.355
18,CAATTCCG,0.0951
19,GACAGACC,-0.135
20,AGATTCTC,-0.111
21,CGTATCAA,-0.176
22,GCACTTGA,-0.0427
23,CTGATCAG,0.0278
24,AACAATAG,-0.106
25,ATCACGAC,-0.274

row,Sequence,PBM E-score
1,TGATTCCA,-0.287
2,ATGCGCTC,-0.0929
3,ACACCTTA,-0.0514
4,CACATGTC,-0.124
5,ATTGTCGA,-0.0381
6,ACATAAGA,-0.0369
7,AATGCAGG,-0.259
8,AAGTTTAG,0.0409
9,CACCGCGC,0.401
10,AGGGTTTG,-0.0633
11,ATCACACG,0.0972
12,CGGTTTGA,0.163
13,ATTCTGAA,0.0113
14,CAGGAGCA,-0.102
15,CATCGTCC,0.0586
16,GCGGCCGA,0.0888
17,AAGACTGC,-0.201
18,TAAATAGA,0.0163
19,AGCGACTG,-0.328
20,ACACAGCA,-0.065
21,ACCGCGAT,0.346
22,AGGCGATC,-0.302
